# From the supplement of paper PMC7826260
# The list shows a part of the results. One pool of 16,384 single-stranded DNAs met each Rep nickase domain in vitro at 3 µM enzyme and 37 °C for 1 h; the strands have 90 letters, of which the middle is given. The score is log2 (uncut reads / reads without enzyme); strong cutting gives strongly negative numbers. There is no active / inactive call. The scaling is to total reads; uncut strands gain when others are lost, and binding without cutting may add a little.
# Key:
# Test in all cases: uncleaved DNA left, log2 of reads against the no-enzyme library (log2 ratio); higher = less cleavage (more negative = more Rep cleavage of the k-mer); sequences stand for … in CTCGTCCG…ACCGGAGA
# [1] = test system: T1, Rep nickase domain of Muscovy duck circovirus
# T1 sequence (residues 1-111, tag not shown): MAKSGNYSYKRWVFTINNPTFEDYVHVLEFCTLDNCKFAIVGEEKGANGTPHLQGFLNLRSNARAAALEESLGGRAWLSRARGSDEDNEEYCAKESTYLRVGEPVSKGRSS
# Protocol: (§1)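 A pool of 90-nt single-stranded DNAs with seven random bases just before the constant AC of the nick site (name = the seven bases) was cut by 3 µM recombinant His6-SUMO-tagged Rep nickase domain (300 nM DNA, 50 mM HEPES pH 8.0, 50 mM NaCl, 1 mM MnCl2, 1 h, 37 °C, three replicates). Uncut DNA was amplified and sequenced.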
# [2] = test system: T2, Rep nickase domain of banana bunchy top virus
# T2 sequence (residues 1-94, tag not shown): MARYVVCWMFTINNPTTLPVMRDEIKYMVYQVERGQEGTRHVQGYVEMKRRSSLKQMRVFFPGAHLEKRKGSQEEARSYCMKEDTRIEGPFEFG
# Protocol: as §1
# [3] = test system: T3, Rep nickase domain of cabbage leaf curl virus
# T3 sequence (residues 1-116, tag not shown): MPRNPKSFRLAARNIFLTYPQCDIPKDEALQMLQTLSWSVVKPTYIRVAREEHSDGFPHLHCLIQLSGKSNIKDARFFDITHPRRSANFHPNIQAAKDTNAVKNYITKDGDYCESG
# Protocol: as §1
# [4] = test system: T4, Rep nickase domain of chickpea chlorotic dwarf virus
# T4 sequence (residues 1-124, tag not shown): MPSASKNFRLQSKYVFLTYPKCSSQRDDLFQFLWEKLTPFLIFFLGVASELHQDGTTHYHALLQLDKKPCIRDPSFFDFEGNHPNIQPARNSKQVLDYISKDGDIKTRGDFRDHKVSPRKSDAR
# Protocol: as §1
# [5] = test system: T5, Rep nickase domain of faba bean necrotic yellows virus
# T5 sequence (residues 1-98, tag not shown): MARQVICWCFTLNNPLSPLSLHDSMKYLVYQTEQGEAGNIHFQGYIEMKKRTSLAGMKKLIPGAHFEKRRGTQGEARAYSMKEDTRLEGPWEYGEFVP
# Protocol: as §1
# [6] = test system: T6, Rep nickase domain of maize striate mosaic virus
# T6 sequence (residues 1-117, tag not shown): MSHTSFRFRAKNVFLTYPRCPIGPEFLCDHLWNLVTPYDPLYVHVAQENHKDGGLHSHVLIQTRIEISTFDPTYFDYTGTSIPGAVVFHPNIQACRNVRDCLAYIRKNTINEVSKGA
# Protocol: as §1
# [7] = test system: T7, Rep nickase domain of porcine circovirus 2
# T7 sequence (residues 2-116, tag not shown): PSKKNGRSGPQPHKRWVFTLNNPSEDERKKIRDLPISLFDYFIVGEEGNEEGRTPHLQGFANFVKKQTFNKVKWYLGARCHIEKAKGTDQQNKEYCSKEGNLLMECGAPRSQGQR
# Protocol: as §1
# [8] = test system: T8, Rep nickase domain of tomato golden mosaic virus
# T8 sequence (residues 1-124, tag not shown): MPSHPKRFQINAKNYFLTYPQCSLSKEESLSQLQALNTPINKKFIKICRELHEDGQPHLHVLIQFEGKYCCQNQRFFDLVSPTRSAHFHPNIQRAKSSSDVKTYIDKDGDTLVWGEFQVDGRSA
# Protocol: as §1
# [9] = test system: T9, Rep nickase domain of tomato yellow leaf curl virus
# T9 sequence (residues 1-136, tag not shown): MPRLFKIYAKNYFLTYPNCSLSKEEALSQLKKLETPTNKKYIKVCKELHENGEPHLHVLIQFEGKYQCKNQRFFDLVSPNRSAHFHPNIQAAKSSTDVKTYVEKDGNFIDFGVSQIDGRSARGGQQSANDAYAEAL
# Protocol: as §1
# [10] = test system: T10, Rep nickase domain of wheat dwarf virus
# T10 sequence (residues 1-137, tag not shown): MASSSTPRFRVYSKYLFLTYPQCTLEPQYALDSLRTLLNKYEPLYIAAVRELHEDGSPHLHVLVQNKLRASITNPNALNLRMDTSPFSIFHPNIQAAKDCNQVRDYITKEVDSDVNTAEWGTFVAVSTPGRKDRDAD
# Protocol: as §1
Sequence,uncleaved DNA left (log2) [1],uncleaved DNA left (log2) [2],uncleaved DNA left (log2) [3],uncleaved DNA left (log2) [4],uncleaved DNA left (log2) [5],uncleaved DNA left (log2) [6],uncleaved DNA left (log2) [7],uncleaved DNA left (log2) [8],uncleaved DNA left (log2) [9],uncleaved DNA left (log2) [10]
GCTTGCC,0.0133,0.0726,0.0589,0.501,0.104,-0.344,0.11,0.0512,0.0488,0.0508
TGCGAGA,0.0539,-0.000416,0.439,0.67,-0.00185,0.394,0.0168,0.15,0.103,0.141
TCTTTTG,-0.0543,-0.155,-0.409,-0.662,-0.162,-1.08,-0.101,-0.159,-0.144,-0.213
CCGACGC,-0.0949,-0.13,-0.161,0.0123,-0.157,-0.475,0.104,-0.221,-0.144,-0.213
CGTGTTC,-0.0111,0.00586,0.105,-0.132,-0.0562,0.116,-0.112,-0.0877,0.0926,-0.0735
GTCGTGA,-0.0175,-0.00633,0.28,0.621,-0.0711,1.37,0.00951,-0.0743,0.0628,0.0239
TCTCAGG,-0.115,-0.0872,0.456,1.28,-0.00288,1.73,-0.00951,-0.0136,-0.207,-0.0175
CCCATAC,0.102,0.0228,0.00987,-0.68,0.2,-0.73,0.125,0.113,0.093,0.0718
TGCCGTA,-0.0618,-0.169,-0.0362,-0.728,-0.0442,-0.824,-0.157,-0.22,-0.0137,-0.173
GAATAGC,0.0546,0.0809,-0.357,-0.416,0.0141,-0.868,0.0658,-0.11,0.0401,-0.0462
ATATTAG,0.0424,-0.0131,-0.732,-0.207,0.0911,-1.16,0.139,0.0792,0.0391,-0.00241
TACTACC,-3.18,-0.668,-2.36,-2.77,-2.59,-0.453,-3.61,-0.939,-0.198,-2.02
ACTCGCA,-0.0953,0.0342,-0.535,-0.956,0.0444,-1.11,-0.0101,0.023,0.0438,-0.0689
CTCTAAA,0.0828,0.00477,-0.15,-0.108,0.0286,-0.658,0.0496,0.0131,-0.0449,0.0766
TCGTGCT,-0.716,-0.159,-1.16,-1.58,-0.321,-1.13,-3.35,-0.147,-0.0049,-0.253
ATTGATT,-1.07,-0.898,-0.136,-1.94,0.0516,-0.164,-2.6,-0.013,-0.0478,-0.107
ATAAGAC,-0.00816,0.0751,-2.39,-2.34,0.0733,-0.605,0.0947,0.0304,-0.00526,-0.28
GAGTAAC,0.0206,0.11,0.214,0.231,0.0663,1.26,-1.11,0.11,0.0799,0.0903
GCAACCG,-0.0752,-0.111,-0.826,-0.834,-0.126,-0.97,-0.136,-0.032,-0.148,-0.23
GTGCTCC,0.0205,0.0675,0.257,0.794,-0.0873,1.79,0.029,-0.0361,0.0221,0.0371
GGCGTGG,0.0817,0.103,0.132,0.539,-0.0489,1.14,0.0803,0.107,-0.0818,0.0242
AGTAGAG,0.185,0.0949,-0.483,-0.273,0.114,-1.07,0.386,0.157,0.112,0.101
CAGACTC,0.0167,-0.0196,0.136,0.444,0.0147,0.555,-0.204,-0.0339,-0.0223,0.0744
GCTGAGC,-0.0381,0.0822,0.19,0.41,0.0183,0.506,0.216,0.0602,-0.0166,0.18
CCAGTAA,0.0112,-0.022,0.0237,-0.363,0.0564,-0.5,0.0101,0.145,-0.109,0.0758
GCGGCGT,-0.0434,0.0144,-0.0229,0.299,0.0838,-0.0636,0.148,0.0717,-0.0441,-0.0859
TTGAATT,-0.0381,-0.518,-0.0541,-2.34,-0.229,-0.416,-2.82,-0.0788,0.0272,0.0113
TCGCCCC,0.0788,0.00752,0.11,-0.0835,-0.118,-0.161,-0.255,-0.297,-0.115,0.0628
ATTGGTT,-0.0455,-0.0834,0.126,0.532,-0.0231,1.24,-0.342,0.0705,-0.152,-0.0434
TCACTAA,0.0453,-0.0773,0.0221,-0.274,0.0739,-0.372,0.0506,0.0698,-0.0428,-0.0422
